{"source": "PubChem BioAssay AID1476", "about": "(National Center for Advancing Translational Sciences (NCATS), 2009)", "note": "Out of some 200,000 compounds screened, about 4,500 (2.2%) were called active. Inconclusive means that the source gave no clear call. Such entries were picked first, then a sample of the others. The call rests on the fitted dose curve; in most records, active means well fitted inhibition curve with a large enough effect; inconclusive means small, poorly fitted or top-dose-only effect, or effect the other way; inactive means flat fitted curve, though single readings scatter. Potencies of inconclusive entries are doubtful fits and often do not repeat. Potency means the concentration at half of the fitted maximal effect; tags describe the fitted curve by direction and shape.", "data": [{"molecular_target": "Cruzipain (Trypanosoma cruzi) (UniProt P25779)", "sequence (P25779 whole entry, looked up)": "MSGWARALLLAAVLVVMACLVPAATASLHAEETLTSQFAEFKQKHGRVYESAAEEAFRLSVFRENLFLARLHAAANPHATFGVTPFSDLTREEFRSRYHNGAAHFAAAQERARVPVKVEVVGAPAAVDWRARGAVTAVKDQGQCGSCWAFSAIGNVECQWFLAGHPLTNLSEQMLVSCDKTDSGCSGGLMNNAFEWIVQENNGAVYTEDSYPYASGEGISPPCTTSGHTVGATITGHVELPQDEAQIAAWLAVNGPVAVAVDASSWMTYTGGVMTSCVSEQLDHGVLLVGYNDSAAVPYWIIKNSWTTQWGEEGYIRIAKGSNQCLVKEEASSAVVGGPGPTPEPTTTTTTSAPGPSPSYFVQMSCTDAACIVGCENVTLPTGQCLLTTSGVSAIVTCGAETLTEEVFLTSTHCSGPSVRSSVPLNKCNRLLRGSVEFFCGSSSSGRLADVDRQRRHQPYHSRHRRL", "assay": "qHTS Assay for Promiscuous and Specific Inhibitors of Cruzain (without detergent); further: nearly all actives have a fitted effect of over 40% in size;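 on max response, negative = inhibition: plate controls were enzyme without inhibitor for no effect and buffer without enzyme for full effect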", "settings": "purified cruzain, Z-FR-AMC fluorescence, no detergent", "outline": "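Purified cruzain at 1.5 nM, pre-incubated 15 min with compound at room temperature in 100 mM sodium acetate pH 5.5, 5 mM DTT, 0.00005% Triton X-100. Reaction started with 2 uM Z-FR-AMC; AMC fluorescence increase over 60 s gives rate.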", "values": [{"smiles": "CSCCC(NS(=O)(=O)c1ccc2c(c1)oc(=O)n2C)C(=O)NCc1ccc(Cl)cc1", "note": "(configuration not stated)", "max response, negative = inhibition": "inactive: 8.65%"}, {"smiles": "Cn1cccc1-c1cc2n(n1)CCC(=O)N2CCCC(=O)NCc1cccc(Cl)c1", "Potency": "inconclusive: 31.6 µM [activator, single point]"}, {"smiles": "CSc1ccc(/C=C(\\C#N)C(=O)Nc2cccc(C)c2)cc1", "Potency": "inconclusive: 39.8 µM [inhibitor, single point]"}, {"smiles": "CC(=O)N1CCC2(CC1)CN(c1cccc(-c3ccccc3)c1)C2", "Potency": "inconclusive: 31.6 µM [activator, single point]"}, {"smiles": "CC1(c2ccc(OCC#N)cc2)C=C(c2ccc(OCC#N)cc2)n2nc(C(F)(F)F)nc2N1", "note": "(configuration not stated)", "Potency": "inconclusive: 3.16 µM [inhibitor, partial curve, poor fit]"}, {"smiles": "COc1ccc(NC(=S)NCc2cccs2)c(OC)c1", "max response, negative = inhibition": "inactive: 1.46%"}, {"smiles": "COCCCn1c2nc3ccccc3nc2c2c(=O)n(-c3ccccc3OC)cnc21", "Potency": "inconclusive: 31.6 µM [activator, single point]"}, {"smiles": "O=C(Nc1ccc(F)cc1F)C1CCN(C(=O)c2cnn(-c3ccccc3)c2-n2cccc2)CC1", "Potency": "inconclusive: 31.6 µM [activator, single point]"}, {"smiles": "Cc1ccc(C)c(N2CCN(C(=O)c3c(C)oc4nc(C)nc(N5CCOCC5)c34)CC2)c1", "Potency": "inconclusive: 31.6 µM [activator, single point]"}, {"smiles": "O=C1/C(=C/c2ccc(F)cc2)SC(=S)N1Nc1ncc(C(F)(F)F)cc1Cl", "Potency": "inconclusive: 39.8 µM [inhibitor, single point]"}, {"smiles": "Cc1nc2cnc(Oc3ccccc3)nc2n(Cc2cccs2)c1=O", "max response, negative = inhibition": "inactive: -14.7%"}, {"smiles": "Cc1ccc(-n2nnnc2SCC(=O)NCCc2ccccc2)cc1C", "max response, negative = inhibition": "inactive: 8.81%"}, {"smiles": "CCOC(=O)COc1ccc2c(c1)C(=O)CC1(CCCCC1)O2", "Potency": "inconclusive: 39.8 µM [activator, single point]"}, {"smiles": "O=C(Nc1nc2cc(Cl)ccc2s1)C1CCCN(S(=O)(=O)c2cccc3cccnc23)C1", "note": "(configuration not stated)", "Potency": "active: 25.1 µM"}, {"smiles": "CC1(C)CC(=O)c2c(nc(SCC(=O)Nc3nsc(-c4ccccc4)n3)c(C#N)c2-c2ccccc2)C1", "Potency": "inconclusive: 25.1 µM [inhibitor, single point]"}, {"smiles": "Cc1cn2c(=O)c3ccccc3nc2n2c(=O)c3ccccc3nc12", "max response, negative = inhibition": "inactive: -5.14%"}, {"smiles": "Cc1cccc(N2CCN(c3nc4ccccc4c4nnc(C)n34)CC2)c1C", "max response, negative = inhibition": "inactive: -6.9%"}, {"smiles": "CCN(CC)C(=O)c1sc2c(c1C)c(=O)n(-c1ccc(OC)cc1OC)c(=O)n2CC(=O)Nc1ccccc1", "Potency": "inconclusive: 39.8 µM [activator, single point]"}, {"smiles": "O=C(NCCSCc1ccccc1)c1cc(S(=O)(=O)N2CCOCC2)ccc1F", "Potency": "inconclusive: 25.1 µM [activator, single point]"}, {"smiles": "O=S(=O)(NCC(c1ccccc1)N1CCc2ccccc21)c1ccc(Cl)cc1", "note": "(configuration not stated)", "Potency": "inconclusive: 25.1 µM [inhibitor, single point]"}, {"smiles": "C=CCc1ccccc1OCCSc1nc(-c2ccccc2F)nc2cc(=O)[nH]n12", "Potency": "inconclusive: 6.31 µM [inhibitor, single point]"}, {"smiles": "COc1ccccc1/C=C/C(=O)Nc1nc2n(n1)C(c1ccc(F)cc1)C=C(c1ccccc1)N2", "note": "(configuration not stated)", "max response, negative = inhibition": "inactive: 8.88%"}, {"smiles": "COc1ccc(N2CCN(C(=O)COc3ccc(Cl)cc3Cl)CC2)cc1", "Potency": "inconclusive: 25.1 µM [activator, single point]"}, {"smiles": "CCc1cnc2c(c1SCc1cc(OC)cc(OC)c1)c(=O)n(C)c(=O)n2C", "max response, negative = inhibition": "inactive: -6.15%"}, {"smiles": "CCOC(=O)c1cc(-c2ccc(C)cc2)n(CCC(=O)NCCCOC)c1C", "Potency": "inconclusive: 31.6 µM [activator, single point]"}, {"smiles": "O=C1CC(c2ccc(Cl)c([N+](=O)[O-])c2)c2ccc3ccccc3c2N1", "note": "(configuration not stated)", "Potency": "inconclusive: 25.1 µM [inhibitor, single point]"}, {"smiles": "COc1cccc(C(=O)Nc2nnc(S(=O)(=O)N3CCCc4ccccc43)s2)c1", "max response, negative = inhibition": "inactive: -10.5%"}, {"smiles": "Cc1cccc(-n2ncc3c(NNC(=O)c4ccccc4Cl)ncnc32)c1", "max response, negative = inhibition": "inactive: 3.39%"}, {"smiles": "CCOC(=O)c1ccc(NC(=O)CC(C)n2nc(C)cc2C)cc1", "note": "(configuration not stated)", "Potency": "inconclusive: 31.6 µM [activator, single point]"}, {"smiles": "CC(=O)Nc1ccc(-c2nc3ccc(Cl)cc3[nH]2)cc1", "Potency": "inconclusive: 39.8 µM [inhibitor, single point]"}, {"smiles": "COc1ccc(CCN2CC(C(=O)O)CC2=O)cc1OC", "note": "(configuration not stated)", "Potency": "inconclusive: 6.31 µM [inhibitor, single point]"}, {"smiles": "COc1cc(CNC(=O)c2cc3n(n2)CCCN(Cc2cccc(F)c2)C3=O)cc(OC)c1OC", "Potency": "inconclusive: 39.8 µM [activator, single point]"}, {"smiles": "CN1CCN(C(=O)c2ccc3c(c2)N(Cc2ccc(C(F)(F)F)cc2)C(=O)c2ccccc2S3)CC1", "Potency": "inconclusive: 31.6 µM [activator, single point]"}, {"smiles": "CCCCC[C@H](O)/C=C/[C@@H]1[C@@H](C/C=C\\CCCC(=O)O)[C@@H](O)C[C@H]1O", "Potency": "inconclusive: 31.6 µM [activator, single point]"}, {"smiles": "COc1ccc(Br)cc1Cn1nnc(C(=O)Nc2cccc(SC)c2)c1N", "Potency": "inconclusive: 31.6 µM [inhibitor, single point]"}, {"smiles": "O=C(C/C=N/OCc1c(Cl)cccc1Cl)c1cnc(-c2ccccc2)s1", "Potency": "active: 12.6 µM"}, {"smiles": "CCOC(=O)c1sc2ncn(CC(=O)Nc3ccc(OC)c(Cl)c3)c(=O)c2c1C", "max response, negative = inhibition": "inactive: -3.95%"}, {"smiles": "O=C(Nc1ccc2[nH]c3c(c2c1)CCCC3)c1ccco1", "max response, negative = inhibition": "inactive: -16.7%"}, {"smiles": "Cc1cc(C(=O)COC(=O)CC2Sc3ccccc3NC2=O)c(C)n1-c1ccccc1", "note": "(configuration not stated)", "Potency": "inconclusive: 31.6 µM [inhibitor, single point]"}, {"smiles": "Cc1ccc(C(=O)O/N=C(\\N)c2ccc(Br)cc2)cc1", "Potency": "inconclusive: 39.8 µM [inhibitor, single point]"}, {"smiles": "COc1ccc(Nc2nc(Cl)nc(NCCO)n2)cc1", "max response, negative = inhibition": "inactive: 11.5%"}, {"smiles": "Cc1cc(/C=C2\\SC(=Nc3ccc(F)cc3)NC2=O)c(C)n1-c1ccc(S(N)(=O)=O)cc1", "Potency": "inconclusive: 39.8 µM [activator, single point]"}]}]}
